Data as given in PubChem BioAssay AID588591 (National Center for Advancing Translational Sciences (NCATS), 2011).
Hit rate of the full screen: of about 390,000 compounds, about 4,700 (1.2%) were called active. Inconclusive results (about 4%) are left out. Calls follow the shape of the dose curve; as a rule, active = well fitted inhibition curve with a large enough effect; inconclusive = small, poorly fitted or top-dose-only effect, or another doubt; inactive = no such curve, though single readings can be large or run the other way. The entries are a selection whose mix differs from that of the whole data set.

What follows are molecules tested against DNA polymerase eta (Homo sapiens) (UniProt Q9Y253) (assay: qHTS for Inhibitors of Polymerase Eta). Settings: recombinant Pol eta, fluorescent DNA replication assay; series mostly up to 114 µM; activity change, negative = inhibition: at the top concentration.
How it was run: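 Pol eta (10 nM) was preincubated with compounds for 15 min at room temperature, after which fluorescent replication substrate (50 nM final) was added to start the reaction. Fluorescence was read kinetically at 0 and 10 min.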
% is scaled to controls: 0 for no effect and ±100 for the full control effect; potency is read from the fitted curve at half-maximal effect.

UniProt Q9Y253, sequence (Q9Y253 whole entry, looked up): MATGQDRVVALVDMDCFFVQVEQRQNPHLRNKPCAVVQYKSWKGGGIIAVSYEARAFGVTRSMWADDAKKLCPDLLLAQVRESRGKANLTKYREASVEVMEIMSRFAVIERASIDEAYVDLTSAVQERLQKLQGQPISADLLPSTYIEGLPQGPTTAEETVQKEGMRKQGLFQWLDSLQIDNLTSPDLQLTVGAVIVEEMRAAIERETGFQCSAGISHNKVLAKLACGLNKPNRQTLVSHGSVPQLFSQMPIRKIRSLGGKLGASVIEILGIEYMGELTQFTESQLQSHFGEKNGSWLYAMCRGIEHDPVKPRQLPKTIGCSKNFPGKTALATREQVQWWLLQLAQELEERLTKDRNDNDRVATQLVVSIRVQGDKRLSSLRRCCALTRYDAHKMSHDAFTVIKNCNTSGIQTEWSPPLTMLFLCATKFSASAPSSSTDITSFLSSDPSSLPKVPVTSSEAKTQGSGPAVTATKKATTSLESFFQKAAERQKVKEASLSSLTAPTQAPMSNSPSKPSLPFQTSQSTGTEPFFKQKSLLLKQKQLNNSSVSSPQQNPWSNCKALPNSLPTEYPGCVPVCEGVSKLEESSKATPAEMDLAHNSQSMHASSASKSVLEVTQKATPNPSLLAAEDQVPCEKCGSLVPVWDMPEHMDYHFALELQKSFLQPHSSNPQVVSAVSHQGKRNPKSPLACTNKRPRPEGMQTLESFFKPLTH

Which Potency does the source give for `COc1ccc(S(=O)(=O)/N=C2/NC(=O)/C(=C\c3ccco3)S2)cc1` here?
The Potency was active: 17.8 µM.

For `CSCC[C@H](NC(=O)C1=NN(c2c(F)c(F)cc(F)c2F)C(=O)CC1)c1nc2ccccc2[nH]1`, which “activity change, negative = inhibition” value is on record?
Its value is inactive: 33.3%.

Which “activity change, negative = inhibition” value does the source give for `OCC[C@@H]1C[C@@H](O)[C@H](O)[C@]2(CCCc3ccccc3O2)O1` here?
Its value is inactive: -3.35%.

Which “activity change, negative = inhibition” value does the source give for `C[C@](N)(Cc1ccc(O)c(O)c1)C(=O)O` here?
Its value is inactive: 3.99%.

`OCC[C@@H]1C[C@@H](O)[C@H](O)[C@@]2(CCCc3ccccc3O2)O1` was tested. Which “activity change, negative = inhibition” value did it give?
Its value is inactive: -18.6%.

Which Potency does the source give for `COc1ccc(/C=C/C(=O)O)cc1S(=O)(=O)N1CCC(C)CC1` here?
Its Potency is active: 79.4 µM.

`COc1ccc2c(c1)c(CC(=O)Nc1ccc(C(C)=O)cc1)c(C)n2C(=O)c1ccc(Cl)cc1` was tested. Which “activity change, negative = inhibition” value did it give?
The value was inactive: -18.8%.

How did the Potency turn out when `CCc1ccc(NC(=O)C2CCCN2S(=O)(=O)c2ccc3c(c2)n(C)c(=O)c(=O)n3C)cc1` (centres undefined) was run?
The Potency was “inactive”.

`CN=C1SC(CC(=O)Nc2cccc(Cl)c2Cl)C(=O)N1C` (centres undefined) was tested. Which “activity change, negative = inhibition” value did it give?
Its value is inactive: 3.08%.

With `CCN1CCN(c2cc(C)c3cc(NC(=O)c4ccc(OC)c(OC)c4)ccc3n2)CC1` as the molecule, how does the “activity change, negative = inhibition” value read?
The value was inactive: -29.7%.

How did the “activity change, negative = inhibition” value turn out when `C=CC[C@@H](Cc1ccc(F)cc1)C(=O)OC[C@@H]1CCCN1C(=O)[C@@H](CC=C)CC(=O)N[C@@H](CO)Cc1ccccc1` was run?
Its value is inactive: -12.5%.

How did the “activity change, negative = inhibition” value turn out when `O=C(NC(=S)Nc1cccc(-c2ccc(CO)o2)c1)c1cccs1` was run?
Its value is inactive: 19.5%.

Which Potency does the source give for `CCCc1cc2c(=O)c(-c3nc4ccccc4s3)c(COCC(=O)O)oc2cc1O` here?
Its Potency is active: 79.4 µM.

For `COc1cc(/C=N/NC(=O)[C@H](Cc2c[nH]c3ccccc23)NC(=O)OCC(C)C)cc([N+](=O)[O-])c1O`, which “activity change, negative = inhibition” value is on record?
Its value is inactive: 1.8%.

For `Cn1nc(C(=O)NCc2cccc(Cl)c2)c2c1-c1ccccc1S(=O)(=O)C2`, which “activity change, negative = inhibition” value is on record?
The value was inactive: -29.1%.

Which Potency does the source give for `O=C(COC(=O)c1ccc([N+](=O)[O-])s1)NCc1ccc(F)cc1` here?
Its Potency is active: 79.4 µM.

For `CC(=O)c1cccc(NC(=O)N2CCCC2C(=O)NCCC(C)C)c1` (centres undefined), which “activity change, negative = inhibition” value is on record?
Its value is inactive: 1.21%.

Which “activity change, negative = inhibition” value does the source give for `Cn1c(O)c(/C=C2\C=NN=C2c2ccccc2)sc1=S` here?
The value was inactive: 25.2%.

Which Potency does the source give for `Cc1nnc(SCC2=C(C(=O)O)N3C(=O)C(NC(=O)Cn4nc(C(F)F)c(Cl)c4C)C3SC2)s1` (centres undefined) here?
The Potency was active: 20 µM.

For `O=C(CSc1nnc2ccc(-c3ccncc3)nn12)N1CCCCC1`, which “activity change, negative = inhibition” value is on record?
Its value is inactive: 30.5%.

Which “activity change, negative = inhibition” value does the source give for `S=c1[nH]nc(-c2ccc(Cl)cc2)n1-c1ccc(Cl)cc1` here?
Its value is inactive: -7.97%.

With `O=C(O)C(CCCCNS(=O)(=O)c1ccc(F)cc1)NS(=O)(=O)c1ccc(F)cc1` (centres undefined) as the molecule, how does the “activity change, negative = inhibition” value read?
Its value is inactive: 4%.

How did the Potency turn out when `CCOC(=O)N(O)c1ccc(C=Cc2ccccc2)cc1` was run?
The Potency was active: 12.6 µM.

How did the “activity change, negative = inhibition” value turn out when `COc1ccc(S(=O)(=O)N2CCCC(C(=O)NC3CCCCC3)C2)cc1` (centres undefined) was run?
Its value is inactive: 0.048%.

With `COc1ccc(NC(=O)CN2C(=O)c3ccccc3Sc3ccc(C(=O)N4CCOCC4)cc32)c(OC)c1` as the molecule, how does the “activity change, negative = inhibition” value read?
The value was inactive: -13.7%.

`CC(=O)Nc1ccc2nc3c(=O)n(C)c(=O)n(C)c3nc2c1` was tested. Which Potency did it give?
The Potency was active: 35.5 µM.

`CCc1ccccc1NC(=O)Cn1nnc(C(=O)NCc2cccs2)c1N` was tested. Which “activity change, negative = inhibition” value did it give?
Its value is inactive: -26.3%.

With `C[C@]12C(=O)N(c3ccccc3)C(=O)N1[C@H]1c3ccccc3OC[C@@H]1[C@H]2c1ccccc1` as the molecule, how does the “activity change, negative = inhibition” value read?
Its value is inactive: -19.3%.

How did the “activity change, negative = inhibition” value turn out when `CCn1c(/C=C2\C(=O)N(C)c3ccccc32)nc2ccccc2c1=O` was run?
Its value is inactive: -18%.

For `O=C(CCl)N1N=C(c2ccco2)CC1c1ccco1` (centres undefined), which Potency is on record?
The Potency was active: 10 µM.

Which “activity change, negative = inhibition” value does the source give for `CCOC(=O)Nc1ccc(S(=O)(=O)Nn2cnnc2)cc1` here?
Its value is inactive: 67.6%.

How did the Potency turn out when `Cc1cc(NS(=O)(=O)c2ccc(NC(=O)COc3ccccc3[N+](=O)[O-])cc2)no1` was run?
The Potency was active: 20 µM.

Which “activity change, negative = inhibition” value does the source give for `CC(C)C1(CCNC(=O)c2cccs2)CCOC(C)(C)C1` (centres undefined) here?
Its value is inactive: 42.3%.

Which Potency does the source give for `O=C1Cc2cccc(=O)c(O)c2C(=O)O1` here?
Its Potency is active: 8.91 µM.

`CCCCC[C@H](O)/C=C/C1=C(CCCCCCC(=O)O)C(=O)CC1` was tested. Which Potency did it give?
Its Potency is active: 25.1 µM.

For `Cc1[nH]nc(Nc2ccc(Br)cc2)c1[N+](=O)[O-]`, which “activity change, negative = inhibition” value is on record?
Its value is inactive: 25.1%.

How did the Potency turn out when `O=c1/c(=C/c2ccco2)sc2nc(-c3ccccc3Br)nn12` was run?
Its Potency is active: 15.8 µM.

Which “activity change, negative = inhibition” value does the source give for `S=c1[nH]nc(-c2cc(-c3ccccc3)n[nH]2)n1/N=C/C=C/c1ccccc1` here?
Its value is inactive: 43.1%.

With `CC1(C)Cc2nc3sc4c(NCCO)ncnc4c3cc2CS1` as the molecule, how does the “activity change, negative = inhibition” value read?
Its value is inactive: 41.6%.

For `CCCCn1c(NS(=O)(=O)c2ccccc2)c(S(=O)(=O)c2ccc(C)cc2)c2nc3ccccc3nc21`, which Potency is on record?
Its Potency is active: 44.7 µM.

For `OCCN1CCN(CC#CCC(c2ccccc2)c2ccccc2)CC1`, which “activity change, negative = inhibition” value is on record?
The value was inactive: 29.5%.

Which “activity change, negative = inhibition” value does the source give for `O=C1C=C(c2ccccc2)C[C@H](c2cccs2)[C@H]1n1cnc([N+](=O)[O-])c1` here?
The value was inactive: 1.88%.

`Cc1nc2nc(C)n(-c3ccccc3)c2s1` was tested. Which Potency did it give?
The Potency was active: 14.1 µM.

`Cc1cc(S(=O)(=O)Nc2cccnc2)c(C)s1` was tested. Which “activity change, negative = inhibition” value did it give?
The value was inactive: 4.99%.
